Measurements: patent US20250127169A1, “PLANTS HAVING INCREASED TOLERANCE TO HERBICIDES” (BASF Agricultural Solutions Seed US LLC, priority 2021, published 2025)
“And” between values parts separate entries of the source, which are not always exact repeats. Identical values can stand only once. Like-named read-outs stand apart in the source and are kept apart here.

Experiments:
Format in all cases: in vivo
[1] = system: Transgenic T2 or T4 Soybean plants harbouring PPO inhibitor tolerance trait (L397E + F420M); conditions: post, 3DAT, single plants
Experimental: (§1) Soybean cv Jake is transformed as previously described by Siminszky et al., Phytochem Rev. 5:445-458 (2006). After regeneration, transformants are transplanted to soil in small pots, placed in growth chambers (16 hr day/8 hr night; 25° C. day/23° C. night; 65% relative humidity; 130-150 microE m-2 s-1) and subsequently tested for the presence of the T-DNA via Taqman analysis. After a few weeks, healthy, transgenic positive, single copy events are transplanted to larger pots and allowed to grow in the growth chamber. An optimal shoot for cutting is about 3-4 inches tall, with at least two nodes present. Each cutting is taken from the original transformant (mother plant) and dipped into rooting hormone powder (indole-3-butyric acid, IBA). The cutting is then placed in oasis wedges inside a bio-dome. The mother plant is taken to maturity in the greenhouse and harvested for seed. Wild type cuttings are also taken simultaneously to serve as negative controls. The cuttings are kept in the bio-dome for 5-7 days and then transplanted to 3 inch pots and then acclimated in the growth chamber for two more days. Subsequently, the cuttings are transferred to the greenhouse, acclimated for approximately 4 days prior to spray. T0 or 2-week old T1 plants are sprayed with a treatment of the phenyluracils as disclosed SUPRA and optionally photosynthesis inhibitor diuron as negative control. Herbicide injury evaluations are taken at 2, 7, 14 and 21 days after treatment.
(§2) Evaluation performed 3 Days After Treatment (DAT) and 1 Week after Treatment (WAT) and shown as injury (0-9) relative to non-transgenic treated plants. Injury Scale: 0-9, 0=no injury, 9=maximum injury. Note: segregating lines.
(§3) The following gives a definition of the injury scores measured above: • Score Description of injury • 0 No Injury • 1 Minimal injury, only a few patches of leaf injury or chlorosis. • 2 Minimal injury with slightly stronger chlorosis. Overall growth points remain undamaged. • 3 Slightly stronger injury on secondary leaf tissue, but primary leaf and growth points are still undamaged. • 4 Overall plant morphology is slightly different, some chlorosis and necrosis in secondary growth points and leaf tissue. Stems are intact. Regrowth is highly probable within 1 week. • 5 Overall plant morphology is clearly different, some chlorosis and necrosis on a few leaves and growth points, but primary growth point is intact. Stem tissue is still green. Regrowth is highly probably within 1 week. • 6 Strong injury can be seen on the new leaflet growth. Plant has a high probability to survive only through regrowth at different growth points. Most of the leaves are chlorotic/necrotic but stem tissue is still green. May have regrowth but with noticeable injured appearance. • 7 Most of the active growth points are necrotic. There may be a single growth point that could survive and may be partially chlorotic or green and partially necrotic. Two leaves may still be chlorotic with some green; the rest of the plant including stem is necrotic. • 8 Plant will likely die, and all growth points are necrotic. One leaf may still be chlorotic with some green. The remainder of the plant is necrotic. • 9 Plant is dead.

[2] = system: Transgenic T2 or T4 Soybean plants harbouring PPO inhibitor tolerance trait (L397Q + F420M); conditions: post, single plants
Experimental: as §1, §2, §3

[3] = system: Transgenic T2 or T4 Soybean plants harbouring PPO inhibitor tolerance trait (L397E + F420V); conditions: post, single plants
Experimental: as §1, §2, §3

SMILES: COC(=O)C(OC)Oc1ccccc1Oc1cc(-n2c(=O)cc(C(F)(F)F)n(C)c2=O)c(F)cc1Br (stereo not drawn) [Phenyluracil No. 1]
- injury (0-9) ([1]; soybean RTP10052 RAEYOR L397E + F420M, 25 g/ha + 1% MSO): 0 (No Injury)
- injury (0-9) ([1]; soybean RTP10052 RAEYOR L397E + F420M, 50 g/ha + 1% MSO): 1 (Minimal injury, only a few patches of leaf injury or chlorosis.)
- injury (0-9) ([1]; soybean RTP10052 RAEZOR L397E + F420M, 25 g/ha + 1% MSO): 0 (No Injury)
- injury (0-9) ([1]; soybean RTP10052 RAEZOR L397E + F420M, 50 g/ha + 1% MSO): 0 (No Injury)
- injury (0-9) ([2]; soybean RTP10053 RAEWGZ L397Q + F420M, 50 g/ha + 1% MSO, 1WAT): 0 (No Injury)
- injury (0-9) ([2]; soybean RTP10053 RAEWGZ L397Q + F420M, 100 g/ha + 1% MSO, 1WAT): 1 (Minimal injury, only a few patches of leaf injury or chlorosis.) and 2
- injury (0-9) ([2]; soybean RTP10053 RAEWGZ L397Q + F420M, 100 g/ha + 1% MSO, 3DAT): 1 (Minimal injury, only a few patches of leaf injury or chlorosis.) and 2
- injury (0-9) ([2]; soybean RTP10053 RAEWHA L397Q + F420M, 100 g/ha + 1% MSO, 1WAT): 1 (Minimal injury, only a few patches of leaf injury or chlorosis.) and 2
- injury (0-9) ([2]; soybean RTP10053 RAEWHA L397Q + F420M, 100 g/ha + 1% MSO, 3DAT): 2 and 1 (Minimal injury, only a few patches of leaf injury or chlorosis.)
- injury (0-9) ([2]; soybean RTP20031 RBGRKB L397Q + F420M, 25 g/ha + 1% MSO, 1WAT): 1 (Minimal injury, only a few patches of leaf injury or chlorosis.)
- injury (0-9) ([2]; soybean RTP20031 RBGRKB L397Q + F420M, 25 g/ha + 1% MSO, 3DAT): 2 and 1 (Minimal injury, only a few patches of leaf injury or chlorosis.)
- injury (0-9) ([2]; soybean RTP20031 RBGRKB L397Q + F420M, 50 g/ha + 1% MSO, 1WAT): 2 and 1 (Minimal injury, only a few patches of leaf injury or chlorosis.)
- injury (0-9) ([2]; soybean RTP20031 RBGRKB L397Q + F420M, 50 g/ha + 1% MSO, 3DAT): 3 and 2
- injury (0-9) ([2]; soybean RTP20031 RBGRKB L397Q + F420M, 100 g/ha + 1% MSO, 1WAT): 2 and 4 and 3
- injury (0-9) ([2]; soybean RTP20031 RBGRKB L397Q + F420M, 100 g/ha + 1% MSO, 3DAT): 2 and 4 and 3
- injury (0-9) ([2]; soybean RTP20031 RBGRTK L397Q + F420M, 50 g/ha + 1% MSO, 1WAT): 1 (Minimal injury, only a few patches of leaf injury or chlorosis.) and 2
- injury (0-9) ([2]; soybean RTP20031 RBGRTK L397Q + F420M, 50 g/ha + 1% MSO, 3DAT): 1 (Minimal injury, only a few patches of leaf injury or chlorosis.) and 2
- injury (0-9) ([2]; soybean RTP20031 RBGRTK L397Q + F420M, 100 g/ha + 1% MSO, 1WAT): 3 and 4
- injury (0-9) ([2]; soybean RTP20031 RBGRTK L397Q + F420M, 100 g/ha + 1% MSO, 3DAT): 3 and 4
- injury (0-9) ([2]; soybean RTP20032 RBHRVN L397Q + F420M, 50 g/ha + 1% MSO, 1WAT): 1 (Minimal injury, only a few patches of leaf injury or chlorosis.)
- injury (0-9) ([2]; soybean RTP20032 RBHRVN L397Q + F420M, 50 g/ha + 1% MSO, 3DAT): 2 and 1 (Minimal injury, only a few patches of leaf injury or chlorosis.)
- injury (0-9) ([2]; soybean RTP20032 RBHRVN L397Q + F420M, 100 g/ha + 1% MSO, 3DAT): 3 and 4 and 2
- injury (0-9) ([2]; soybean RTP20032 RBHSKR L397Q + F420M, 50 g/ha + 1% MSO, 1WAT): 1 (Minimal injury, only a few patches of leaf injury or chlorosis.) and 2
- injury (0-9) ([2]; soybean RTP20032 RBHSKR L397Q + F420M, 100 g/ha + 1% MSO, 1WAT): 3
- injury (0-9) ([2]; soybean RTP20032 RBHSKR L397Q + F420M, 100 g/ha + 1% MSO, 3DAT): 3
- injury (0-9) ([3]; soybean RTP10050 RAEYDZ L397E + F420V, 25 g/ha + 1% MSO, 1WAT): 0 (No Injury)
- injury (0-9) ([3]; soybean RTP10050 RAEYDZ L397E + F420V, 25 g/ha + 1% MSO, 3DAT): 0 (No Injury)
- injury (0-9) ([3]; soybean RTP10050 RAFANZ L397E + F420V, 25 g/ha + 1% MSO, 1WAT): 0 (No Injury)
- injury (0-9) ([3]; soybean RTP10050 RAFANZ L397E + F420V, 100 g/ha + 1% MSO, 1WAT): 0 (No Injury)
- injury (0-9) ([3]; soybean RTP10050 RAFANZ L397E + F420V, 100 g/ha + 1% MSO, 3DAT): 1 (Minimal injury, only a few patches of leaf injury or chlorosis.)
